According to paper PMC9262583:
No constants are given. Whether binding was seen depends on the method and setting. Binding seen in cells or lysates may run through a third protein. Some binding calls cover weakened binding; strength is not graded here. Where a sequence is shown, tags or fusion partners need not be part of it.

Protein sequences, listed by entry. Tags and fused reporters are not part of them.
UniProt Q9NFU0: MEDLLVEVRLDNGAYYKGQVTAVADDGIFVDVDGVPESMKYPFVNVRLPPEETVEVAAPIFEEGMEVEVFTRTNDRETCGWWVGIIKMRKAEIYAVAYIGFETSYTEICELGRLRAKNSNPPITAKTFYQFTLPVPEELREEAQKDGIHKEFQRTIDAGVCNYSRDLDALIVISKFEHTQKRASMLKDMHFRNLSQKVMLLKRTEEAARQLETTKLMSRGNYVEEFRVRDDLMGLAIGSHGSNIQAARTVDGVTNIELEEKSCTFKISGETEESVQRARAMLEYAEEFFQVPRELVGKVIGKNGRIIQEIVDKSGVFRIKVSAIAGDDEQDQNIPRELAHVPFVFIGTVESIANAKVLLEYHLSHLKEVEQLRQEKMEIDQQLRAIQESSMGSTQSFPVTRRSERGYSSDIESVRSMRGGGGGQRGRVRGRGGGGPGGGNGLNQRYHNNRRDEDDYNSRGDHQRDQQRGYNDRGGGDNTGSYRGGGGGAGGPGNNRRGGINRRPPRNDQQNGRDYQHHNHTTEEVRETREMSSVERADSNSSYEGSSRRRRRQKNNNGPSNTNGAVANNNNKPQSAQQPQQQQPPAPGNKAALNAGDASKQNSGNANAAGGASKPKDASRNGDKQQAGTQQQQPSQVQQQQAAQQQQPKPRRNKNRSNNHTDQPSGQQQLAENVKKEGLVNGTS

Experiments:
Test in all cases: co-IP; anti-GFP immunoprecipitation from late-ovary extract in the presence of RNase; immunoblot with anti-dFMRP, anti-Glo or anti-GFP
[1] = target: T1, GFP-GloΔCTX1 (Drosophila) (UniProt Q9VGH5)
T1 sequence: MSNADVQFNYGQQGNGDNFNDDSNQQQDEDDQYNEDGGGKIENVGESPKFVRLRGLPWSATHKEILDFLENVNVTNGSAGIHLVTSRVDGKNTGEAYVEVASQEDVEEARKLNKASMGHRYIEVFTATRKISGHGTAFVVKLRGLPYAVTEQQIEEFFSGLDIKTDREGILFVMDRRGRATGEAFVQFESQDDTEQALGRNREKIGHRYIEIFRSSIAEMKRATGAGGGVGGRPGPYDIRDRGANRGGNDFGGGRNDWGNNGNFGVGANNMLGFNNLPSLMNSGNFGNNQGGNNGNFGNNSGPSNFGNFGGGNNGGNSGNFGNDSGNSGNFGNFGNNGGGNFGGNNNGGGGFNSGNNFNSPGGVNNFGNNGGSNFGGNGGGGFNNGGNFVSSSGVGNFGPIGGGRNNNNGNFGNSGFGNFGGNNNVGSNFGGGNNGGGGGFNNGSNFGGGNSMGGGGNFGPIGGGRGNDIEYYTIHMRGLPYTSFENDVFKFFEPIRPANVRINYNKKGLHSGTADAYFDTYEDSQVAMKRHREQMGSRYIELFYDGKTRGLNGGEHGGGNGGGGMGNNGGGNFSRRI

[2] = target: T2, GFP-GloΔCTX2 (Drosophila) (UniProt Q9VGH5)
T2 sequence: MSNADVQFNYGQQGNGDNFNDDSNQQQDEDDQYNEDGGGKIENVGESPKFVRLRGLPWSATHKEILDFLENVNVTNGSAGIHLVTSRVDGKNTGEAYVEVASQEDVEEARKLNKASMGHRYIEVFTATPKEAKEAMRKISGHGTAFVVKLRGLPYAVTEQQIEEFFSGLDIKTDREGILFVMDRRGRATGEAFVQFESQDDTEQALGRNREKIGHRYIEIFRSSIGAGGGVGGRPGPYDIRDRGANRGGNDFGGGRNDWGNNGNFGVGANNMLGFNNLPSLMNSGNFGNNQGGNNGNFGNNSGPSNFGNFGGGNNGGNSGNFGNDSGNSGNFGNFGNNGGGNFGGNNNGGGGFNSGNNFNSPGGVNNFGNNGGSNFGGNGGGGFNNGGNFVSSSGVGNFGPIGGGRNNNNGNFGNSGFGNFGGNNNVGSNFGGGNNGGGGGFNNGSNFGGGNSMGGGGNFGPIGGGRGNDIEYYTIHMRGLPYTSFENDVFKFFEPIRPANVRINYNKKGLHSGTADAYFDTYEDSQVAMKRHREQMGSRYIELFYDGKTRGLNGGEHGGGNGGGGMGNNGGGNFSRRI

[3] = target: T3, GFP-tagged Glorund (GFP-Glo) (Drosophila) (UniProt Q9VGH5)
T3 sequence: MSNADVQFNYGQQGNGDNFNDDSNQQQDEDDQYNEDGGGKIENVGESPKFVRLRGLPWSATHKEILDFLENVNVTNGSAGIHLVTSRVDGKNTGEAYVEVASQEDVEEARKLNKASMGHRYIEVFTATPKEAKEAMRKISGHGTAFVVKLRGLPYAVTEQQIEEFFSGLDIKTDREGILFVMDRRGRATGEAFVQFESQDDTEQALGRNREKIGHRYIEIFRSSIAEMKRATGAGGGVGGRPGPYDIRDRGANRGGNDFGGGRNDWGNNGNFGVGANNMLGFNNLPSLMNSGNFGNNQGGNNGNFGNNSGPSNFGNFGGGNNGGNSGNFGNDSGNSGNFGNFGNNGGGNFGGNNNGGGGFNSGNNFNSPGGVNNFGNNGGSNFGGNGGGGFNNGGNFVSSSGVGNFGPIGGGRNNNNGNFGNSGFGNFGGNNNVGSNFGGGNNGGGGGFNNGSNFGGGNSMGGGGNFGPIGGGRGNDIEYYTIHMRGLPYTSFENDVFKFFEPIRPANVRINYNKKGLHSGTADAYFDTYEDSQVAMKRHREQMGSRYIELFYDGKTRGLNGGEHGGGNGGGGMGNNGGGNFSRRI

Measured: binding

Drosophila fragile X mental retardation protein (dFMRP), endogenous (from UniProt Q9NFU0 1-684)
binds: all assays above
